Measurements from PubChem BioAssay (NCATS).
Where “and” joins values, the source holds several entries; their conditions need not be identical. Equal values may be shown once. This list was built around the results that the source calls inconclusive (neither active nor inactive); the mix of calls is not that of the screen. Where the call is inconclusive, the potency comes from a doubtful curve fit. More than one record can exist for a structure, and the calls need not agree. Calls of active or inactive are those of the source. Calls follow the shape of the dose curve; as a rule, active = well fitted inhibition curve with a large enough effect; inconclusive = small, poorly fitted or top-dose-only effect; inactive = flat fitted curve, though single readings scatter.

What follows are compounds tested against Phospholipid hydroperoxide glutathione peroxidase GPX4 (Homo sapiens) (UniProt P36969) (assay: Primary qHTS Assay for Inhibitors of Recombinant Selenoprotein Glutathione Peroxidase 4 (GPX4) (AID 1845192; also: nearly all actives have a fitted effect of over 65% in size)). Details: recombinant GPX4, GR-coupled NADPH fluorescence, 15 min; series mostly up to 50 µM.
Text: Assay Provider: Elias S.J. Arner MD PhD.
Department of Medical Biochemistry and Biophysics
Karolinska Institutet, Solna, Stockholm, Sweden
Selenoprotein glutathione peroxidases (GPX), like the ubiquitously expressed GPX1 and the ferroptosis modulator GPX4, enact their antioxidant activities by reducing hydroperoxides using glutathione. […] GPX1 and GPX4 inhibitors have thus shown promise as anti-cancer agents. Existing inhibitors are often promiscuous, or modulate GPX activity only indirectly, so novel direct inhibitors identified through screening against GPX1 and GPX4 could be valuable. Here, we developed optimized glutathione reductase (GR)-coupled GPX assays for the biochemical high-throughput screen (HTS) of almost 12,000 compounds with known mechanisms of action. Initial hits were triaged using a GR counter-screen, assessed for isoform specificity using a separate GPX2 assay, and were assessed for general selenocysteine-targeting activity using a thioredoxin reductase (TXNRD1) assay. With this suite of assays, we identified novel GPX1/GPX2- and GPX4-specific inhibitors and can here present a validated pipeline for future discovery research for selenoprotein-targeting agents.
SEQUENCE No. (e.g., 1, 2, 3, etc.); […] (e.g., Cells, Incubation, Reagent, etc.); VALUE; DESCRIPTION.
1; Reagent 1; 3 uL; 333.33 nM GPx4 enzyme or no enzyme control in 1536-well, black, solid Greiner assay plate.
2; Compound; 25 nL; Kalypsis pin tool (Wako USA) equipped with a 1536-well pin head.
3; Incubation; 30 min; room temperature.
4; Reagent 2; 1 uL; 500 nM GR, 5 mM GSH, 2.5 mM NADPH solution
5; Reagent 3; 1 uL; 2.5 mM CHP in 50% EtOH.
6; Detection; Fluorescence; ViewLux microplate reader, excitation 340 nm and emission 450 nm.
7; Incubation; 15 min; room temperature.
8; Detection; Fluorescence; ViewLux microplate reader, excitation 340 nm and emission 450 nm.
NOTES (numbers refer to Sequence numbers above)
1. 3 µL of 333.33 nM GPX4 and 0.016% BSA in assay buffer (50 mM Tris-HCl, 2 mM EDTA (pH 7.5), 150 mM NaCl) was added to columns 3-48 of 1536-well plates using a BioRAPTR Flying Reagent Dispenser (Let's Go Robotics (LGR), Carlsbad, CA). A no-enzyme control (0.01% BSA in TES assay buffer) was added to columns 1-2.
2. 25 nL, library and DMSO controls were added to each well with a pin tool (Kalypsys).
3. The assay plates were incubated for 30 minutes at room temperature.
4. 1 µL of master mix (500 nM glutathione reductase (GR), 5 mM reduced glutathione (GSH), 2.5 mM NADPH in assay buffer) was added.
5. 1 µL of cumene hydroperoxide (CHP) ([2.5 mM] in 50% EtOH) was then added within 5 minutes to initiate the reaction. Final concentrations were: 200 nM GPX4, 1 mM GSH, 0.5 mM CHP, 0.5 mM NADPH, 100 nM GR, 0.01% BSA.
6. Initial fluorescence readout (t=0) at 340/450 nm was measured using a ViewLux multimodal detector (PerkinElmer, Waltham, MA).
8. Endpoint fluorescence readout (t=15) at 340/450 nm was measured 15 min after room temperature incubation.
Potency is read from the fitted curve at half-maximal effect; tags tell the direction and shape of the fitted curve.

Sequence of UniProt P36969 (P36969 whole entry, looked up): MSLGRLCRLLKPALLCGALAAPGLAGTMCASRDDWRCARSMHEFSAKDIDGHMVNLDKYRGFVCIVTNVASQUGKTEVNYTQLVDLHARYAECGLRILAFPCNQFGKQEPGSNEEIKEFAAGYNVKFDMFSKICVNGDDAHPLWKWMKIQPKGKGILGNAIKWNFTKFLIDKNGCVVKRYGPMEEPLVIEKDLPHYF

SMILES	Potency
COC(=O)C[C@](O)(CCCC(C)(C)O)C(=O)O[C@@H]1C(OC)=C[C@]23CCCN2CCc2cc4c(cc2[C@H]13)OCO4	inconclusive: 7.94 µM [inhibitor, partial curve]
C#CCN[C@@H]1CCc2ccccc21	inactive
C[C@H]1c2cccc(O)c2C(O)=C2C(=O)[C@]3(O)C(O)=C(C(N)=O)C(=O)[C@@H](N(C)C)[C@@H]3[C@@H](O)[C@@H]21	inconclusive: 35.5 µM [inhibitor, single point] and inconclusive: 16.1 µM [inhibitor, partial curve] and inconclusive: 10.1 µM [inhibitor, partial curve, poor fit]
O=c1c(O)c(-c2cc(O)c(O)c(O)c2)oc2cc(O)cc(O)c12	inconclusive: 14.3 µM [inhibitor, partial curve]
CN(C)Cc1ccc(-c2nc3cccc4c3n2CCNC4=O)cc1	inconclusive: 25.5 µM [inhibitor, partial curve, poor fit]
CCNC(=O)c1cc2c(-c3cc(OCCN4CCCC4)c(Cl)cc3Cl)nc(N)nc2s1	inconclusive: 15.7 µM [inhibitor, single point]
CN1C(=O)C[C@H](C(=O)N[C@@H](Cc2cnc[nH]2)C(=O)N2CCC[C@@H]2C(N)=O)NC1=O	inactive
COc1ccc2nc3cc(Cl)ccc3c(Nc3cc(CN4CCCC4)c(O)c(CN4CCCC4)c3)c2n1	inconclusive: 20.2 µM [inhibitor, single point]
Cc1cc(=O)oc2cc(O)ccc12	active: 12.8 µM and active: 1.61 µM
O=C1CCCC(=O)C1C(=O)c1ccc(C(F)(F)F)cc1[N+](=O)[O-]	inconclusive: 25.1 µM [inhibitor, single point]
COc1ccc(-c2nc3ccc(C4=NNC(=O)CC4C)cc3[nH]2)cc1 (stereo not given)	inconclusive: 25.5 µM [inhibitor, partial curve] and inconclusive: 14.3 µM [inhibitor, partial curve, poor fit]
CC(C)(C)c1nc(-c2cccc(NS(=O)(=O)c3c(F)cccc3F)c2F)c(-c2ccnc(N)n2)s1	active: 12.8 µM and active: 11.2 µM
OCCCNc1cc(-c2ccnc(Nc3cccc(Cl)c3)n2)ccn1	inconclusive: 20.2 µM [inhibitor, partial curve, poor fit]
COc1c(N2CCNC(C)C2)c(F)cc2c(=O)c(C(=O)O)cn(C3CC3)c12 (stereo not given)	inconclusive: 14.3 µM [inhibitor, partial curve]
CC1CCC(C(=O)N(c2cc(C#CC(C)(C)C)sc2C(=O)O)C2CCC(O)CC2)CC1 (stereo not given)	active: 9.04 µM and inconclusive: 28.6 µM [inhibitor, partial curve, poor fit]
CC1(C)CCC(CN2CCN(c3ccc(C(=O)NS(=O)(=O)c4ccc(NCC5CCOCC5)c([N+](=O)[O-])c4)c(Oc4cnc5[nH]ccc5c4)c3)CC2)=C(c2ccc(Cl)cc2)C1	active: 3.16 µM
O=C(O)c1c(Cl)c(Cl)c(Cl)c(Cl)c1-c1c2cc(I)c(=O)c(I)c-2oc2c(I)c(O)c(I)cc12	inconclusive: 32.1 µM [inhibitor, single point]
CCOc1cc(CC(=O)N[C@@H](CC(C)C)c2ccccc2N2CCCCC2)ccc1C(=O)O	inconclusive: 8.06 µM [inhibitor, partial curve, poor fit]
CN(C)c1ccc(C2Nc3ccc4ccccc4c3C3=C2C(=O)CC(C)(C)C3)cc1Br (stereo not given)	inconclusive: 25.5 µM [inhibitor, partial curve]
CC(CCc1ccc(O)cc1)NCCc1ccc(O)c(O)c1 (stereo not given)	inactive

SMILES	Potency
Cc1ccc(C(=O)c2cc(O)c(O)c([N+](=O)[O-])c2)cc1	inconclusive: 28.2 µM [inhibitor, single point]
CC1COc2c(N3CCN(C)CC3)c(F)cc3c(=O)c(C(=O)O)cn1c23 (stereo not given)	inconclusive: 3.6 µM [inhibitor, full curve]
Cc1cccc(-c2nn(C(=S)Nc3ccccc3)cc2-c2ccnc3ccccc23)n1	inconclusive: 14.3 µM [inhibitor, partial curve]
CCOC(=O)C1=C[C@]2(CC)CCCN3CCc4c(n1c1ccccc41)[C@@H]32	inconclusive: 35.5 µM [inhibitor, single point]
O=C(NOCC(O)CO)c1cc(Br)c(F)c(F)c1Nc1ccc(I)cc1F (stereo not given)	inconclusive: 14.3 µM [inhibitor, partial curve]
O=C(O)c1ccc(-c2c[nH]c3ncc(-c4ccccc4)cc23)cc1C1CCCC1	inconclusive: 11.4 µM [inhibitor, partial curve]
COc1ccc2c(Oc3ccc(NC(=O)c4c(C)n(CC(C)(C)O)n(-c5ccccc5)c4=O)nc3)ccnc2c1	inactive
COC1CCC(N(C(=O)C2CCC(C)CC2)c2cc(C3=CCCCC3)sc2C(=O)O)CC1 (stereo not given)	inconclusive: 14.3 µM [inhibitor, partial curve, poor fit]
N[C@@H](Cc1cc(I)c(Oc2cc(I)c(O)c(I)c2)c(I)c1)C(=O)O	inconclusive: 22.7 µM [inhibitor, single point]
COc1cc(Nc2nc3ccccc3nc2NS(=O)(=O)c2ccc(NC(=O)c3ccc(C)c(OC)c3)cc2)cc(OC)c1	inconclusive: 32.1 µM [inhibitor, single point]
NC[C@H]1O[C@H](O[C@@H]2[C@@H](O)[C@@H](O[C@H]3O[C@H](CO)[C@@H](O)[C@H](N)[C@@H]3O)[C@H](N)C[C@@H]2N)[C@H](O)[C@@H](O)[C@H]1O	inactive
Cc1ccn(-c2ccc(-c3ncco3)cc2)c(=O)c1-c1ccc2nc(N)ncc2c1	inconclusive: 22.7 µM [inhibitor, single point]
CCOC(=O)c1ccc(OC(=O)CCCCCN=C(N)N)cc1	inactive
C[C@@]1(C(=O)Nc2ccc(F)nc2)CCCN1c1nc(Nc2cc(C3CC3)[nH]n2)c2cccn2n1	inconclusive: 18 µM [inhibitor, single point]
COc1ccc(CC2SC(=O)NC2=O)cc1C(=O)NCc1ccc(C(F)(F)F)cc1 (stereo not given)	inconclusive: 22.7 µM [inhibitor, single point]
CC(C)C1CCC(C(=O)N[C@H](Cc2ccccc2)C(=O)O)CC1 (stereo not given in full)	inconclusive: 35.5 µM [inhibitor, partial curve, poor fit]
COc1ccc2cc(-c3nc(-c4ccc(S(C)=O)cc4)[nH]c3-c3ccncc3)ccc2c1 (stereo not given)	inconclusive: 5.7 µM [inhibitor, full curve] and inconclusive: 16.1 µM [inhibitor, partial curve]
Cc1ccc(-n2[nH]c(C)c(N=Nc3cccc(-c4cccc(C(=O)O)c4)c3O)c2=O)cc1C	inconclusive: 22.7 µM [inhibitor, single point]
COc1cc2nc(N3CCN(C(=O)c4ccco4)CC3)nc(N)c2cc1OC	inconclusive: 22.4 µM [inhibitor, single point]
COc1cc(N2CCC(N3CCN(C)CC3)CC2)ccc1Nc1ncc(Cl)c(Nc2ccccc2S(=O)(=O)C(C)C)n1	inactive
